Source: the supplement of paper PMC11417369
This is one part of the list.

test system: PfHDP1 homeodomain (GST-tagged); assay: gcPBM binding intensity (ln(normalized median fluorescence intensity)); higher = stronger DNA binding
Procedure, shortened: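 An Agilent 4 × 180k array of primer-extended double-stranded 36-bp intergenic genomic probes, with negative controls, was incubated for 1 h with GST-tagged P. falciparum DNA-binding domains expressed in E. coli. Alexa488 anti-GST antibody detected bound protein, scanned at 488 nm. Binding intensity is the highest Masliner-normalised natural-log median intensity across replicate spots of either probe orientation.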

| Sequence | gcPBM binding intensity (ln) |
| --- | --- |
| ATTTGGCATAAACACACACACACACCCACCCACATA [CACACA_site8096] | 7.15 |
| TTTTTATTGAGAACAGTGCAAATAACAAAAAAAAAA | 8.72 |
| TTATAATAAATATGAAGTACTATAAATATGGTATAT [XGTACX_site5448] | 6.39 |
| ATCGCATAAAGACAAGAACACACATATATATTGTAG [CACACA_site9229] | 6.63 |
| AATAAATATAGGAATACACACAATATAAATGTATTG [CACACA_site3366] | 6.35 |
| CACTAAAATGGACACACACACACACCGATATATATA [CACACA_site6139] | 7 |
| TATTTTTTTGTGTTTGGTACACACGTTATAAAAAAT [XGTACX_site2655] | 6.39 |
| CTAGCAAATACATACACACACACACCCATACATATA [CACACA_site3496] | 7 |
| ACAACAATATGGAATTGTACATATATATATAAATAT [XGTACX_site3139] | 6.61 |
| GAACAAATAAAAAGGAGTACAATCAAATCTACGTAT [XGTACX_site343] | 6.33 |
| TACACAAAACATAAAAGTACATAATAATAAAGTTAA [XGTACX_site8872] | 6.56 |
| TAAATAAATACATACACACACATACATATATATATA [CACACA_site3129] | 8.97 |
| TTATTGTTTATTAAATGTACAGATTCGTTAAAATTA [XGTACX_site3041] | 6.35 |
| AGTATACATTCATTTTGTACTCAATGATTTGATAAC [XGTACX_site6787] | 6.31 |
| ATAATTATATTCCATACACACATATATTTAAAGGTT [CACACA_site2957] | 6.85 |
| AGGAATAAATAATTAACACACACAATCTTTTTTTTT [CACACA_site9027] | 6.56 |
| TAATAAGTATAAAATAGTACATATAAATATATCAAA [XGTACX_site8834] | 6.06 |
| AAATAAAAAAACTATTGTACTGAATACAAATTAAAT [XGTACX_site3793] | 6.35 |
| ATAATATTAGTAAACACACTCAAATTATATATGATA [CACACA_site5721] | 6.28 |
| ACTTTTTCACATAAAAATGATCCGATTAGTAATAAT [XGTACX_negctrl_site248] | 6.37 |
| CATATATAAAATATATGTACTTATAGAACATAATTT [XGTACX_site1936] | 6.09 |
| CATTTTTTAAGCATCACACACGAAAGAACAAAGTGG [CACACA_site4755] | 7.03 |

| Sequence | gcPBM binding intensity (ln) |
| --- | --- |
| TGGAAAATTATAAGGTGTACATATAAGCTATTATAT [XGTACX_site118] | 6.41 |
| TTTTTTTTTTTAAGGTGTACAATAAAAATTTATGCA [XGTACX_site8860] | 6.14 |
| ATGTTTTCAAAAATAAAACATATAAATAAATAAATA [TGCATGCA_negctrl_site226] | 6.35 |
| TTACGAATGAATATATGTACATATATATATATATAT [XGTACX_site3790] | 9.45 |
| AATGTACACGCACCCACACACAAACAAATATAAATA [CACACA_site7319] | 7.09 |
| TTGCTTTTCATTTATTGTACATACCCAGTAGGATAA [XGTACX_site3939] | 6.68 |
| GACATAGTATTAAGTTGTACATATATAAAAATAAAT [XGTACX_site1583] | 6.47 |
| TTATAATACCTACAAAGTACAAACTTAAATATGAAC [XGTACX_site5684] | 6.17 |
| CAACAACAAATGAGAAGTACATAAATATTAACAATA [XGTACX_site4625] | 6.5 |
| AAGCTTAAAAATGGGGGTACGTCATAGGGATTCAAC [XGTACX_site8080] | 6.9 |
| TTTGACACAATATTTTGTACGAAACTATTAATTCAA [XGTACX_site4853] | 5.96 |
| AATATATAAACATATACACACAAAAACATATATATA [CACACA_site4855] | 6.94 |
| TAAAAAAAAACATGATGTACATAAAATTTTTTACTT [XGTACX_site7056] | 6.33 |
| AAAATATATAAACGCACATATATTTATGTATATATA [CACACA_negctrl_site163] | 7.55 |
| AAAAGGGAAAAAATTAAAATTATATATATATATATG [CACACA_negctrl_site137] | 6.41 |
| TACATATATTTAAGGAGTACAAAAAATAATGATAAA [XGTACX_site3539] | 7.13 |
| TTATTAGAGATGTTAAGATATAGGGATAATTTCGAT [XGTACX_negctrl_site395] | 6.49 |
| ATATGTTTTAAGTGTACACATATAATGTATTTTGTT [CACACA_site4929] | 7.61 |
| AACCTATCTATAGGAACAATATATATATATATAATT [CACACA_negctrl_site1707] | 6.48 |
| TATTATGCTATTTAATGTACGGAATTTATATATATA [XGTACX_site564] | 6.81 |
| TTGCTCATTGAAATTATACACACCAAATATATAAAT [CACACA_site2482] | 6.79 |
| TATACATAGAAACACACACACATAAATAAATATATA [CACACA_site1342] | 6.79 |

| Sequence | gcPBM binding intensity (ln) |
| --- | --- |
| TGGTATATAAAACACACACACATATGTATATATATA [CACACA_site926] | 7.66 |
| CCTTAAATAATATATTCACACAATATAACAAAAATT [CACACA_site4892] | 6.41 |
| CATACACAGAAACACACACACATATATACATATATA [CACACA_site1094] | 6.9 |
| TCATATATATTGAAATGTACTTATTTTTTCCTCATA [XGTACX_site6526] | 6.31 |
| AAAAAAAAAATTATATATATATCCCTTATTTTTTCT [TGCATGCA_negctrl_site151] | 6.67 |
| AAAAAAAAGAATTAGGCACACAATTTTAATATAGGA [CACACA_site1522] | 6.12 |
| ACTACGAATGGTAGAGTGCAGTCTGGAGAAGAGTAC [GTGCAC_site9685] | 7.19 |
| GCATACATCAAGCACACACACACACGCACACGCACA [CACACA_site6311] | 7.18 |
| TTATGGATGGACAATAATAAAATTTTTACTTTTATT [CACACA_negctrl_site908] | 6.44 |
| TTATGTTTCATAAAAAATTAATCAAACATATATAAG [CACACA_negctrl_site666] | 5.96 |
| GTGAAGTTCAAAATATGTACTTATGTATGTATTTTT [XGTACX_site165] | 5.94 |
| TAAATATAACAGAATAATATGTGGATTAATAAATGA [CACACA_negctrl_site438] | 6.41 |
| AAAAAAAAAAAAAAAACACACATGTATACTAGAATA [CACACA_site7108] | 6.78 |
| TTAAGTTACAATTCTCGTACACATTAAAAGAAAATT [XGTACX_site699] | 6.33 |
| ATATAATATGTTGAATGTACTTAAAAAAATGTATCT [XGTACX_site5385] | 6.33 |
| TATAAGAAATAAAACCTGATTATAAACCTGTAACCA [CACACA_negctrl_site1302] | 6.23 |
| TTACAAATGTAGAAAAGTACATATAATAATAATTTA [XGTACX_site3044] | 6.3 |
| ATTTGTATAATAAGTTGTACAATTCTTACAATATAA [XGTACX_site4164] | 6.45 |
| GGTAGAAAATCAGTTAAACACACACCGAAAAAAAAA [CACACA_site8934] | 6.56 |
| AAAAAAAAAAAAAGCACACACACATATGCGTATATA [CACACA_site953] | 6.43 |
| TTTAAGCGTTCACTGCTGCACTTTTATGTTGTGACC | 6.36 |
| ATGGATAATAATAAGTGTACACATATATTTAGAAGA [XGTACX_site244] | 7.06 |

| Sequence | gcPBM binding intensity (ln) |
| --- | --- |
| TCCTATTTTATATAATGTACATAAATATATTACATA [XGTACX_site2720] | 6.45 |
| AAGAGCAACCAAATAGAAAAAGGAAAATAAAAGGAA [CACACA_negctrl_site100] | 6.61 |
| TTTGTTCAATTTACATGTACAGATATAATCTAACAT [XGTACX_site370] | 6.21 |
| ATTTTTATTTTATATACACACAATAATAATATAATA [CACACA_site4015] | 6.74 |
| TCTATTAAAACAAATTGTACTTATTGATAAAGAATA [XGTACX_site3645] | 6.31 |
| AAGGCAAACAGACACACACACATATATACCTATATA [CACACA_site7077] | 6.64 |
| GTTGCCATCATTTGGCGTACAGTCAAAACCAAATCT [XGTACX_site1398] | 6.07 |
| GTTATACACATTACATGTACAAAAGTTGCACTTCAT [XGTACX_site6023] | 9.57 |
| GTTATAAATAAATATACACACATATATAAAATACAT [CACACA_site7146] | 6.6 |
| AAATTTTTTTTTTAATTTTTTATTTAAAAAAAATAT [TGCATGCA_negctrl_site174] | 5.89 |
| TATAACATAAAACACACACACATACATACACAAAAA [CACACA_site1804] | 7.15 |
| CGCTTTATTTATATATGTACATATATATATATATAC [XGTACX_site5012] | 6.85 |
| TAAAATAACTCACAAAGTACAAAAATAAGCATATGA [XGTACX_site7046] | 6.87 |
| TACATGATAGATCACACACACATATAAATATATATA [CACACA_site5562] | 6.6 |
| ACATAAGACACAAATACACACAAAAATATATAACAA [CACACA_site4082] | 6.9 |
| TATGCATTTATGCATTGTACTTTTATAGATTCCACC [XGTACX_site7121] | 6.22 |
| AACAATATGGATGTATGTACACATATAGAACGTTAT [XGTACX_site7142] | 6.88 |
| ATGAACGGAAAAATATATATAAATATATATATCATG [XGTACX_negctrl_site342] | 6.18 |
| TATGTATATATATTAACACACAAAAAAAAAAAAAAA [CACACA_site1812] | 6.2 |
| TTAAACTATACCAAAACACACATACAAAATATAAAA [CACACA_site5494] | 6.87 |
| GAAATTTTATTACTTTTACACACCTATATATTATTC [CACACA_site9076] | 6.58 |
| ATATTATATATACACGCACACACACTAATATATATA [CACACA_site9092] | 7.77 |
